# About 5,000 (1.2%) of roughly 410,000 compounds were called active. The inconclusive results got no clear call from the source; some entries with a clear call stand among them for comparison. Calls follow the shape of the dose curve; as a rule, active = well fitted inhibition curve with a large enough effect; inconclusive = small, poorly fitted or top-dose-only effect; inactive = no such curve, though single readings can be large or run the other way. Where the call is inconclusive, the potency comes from a doubtful curve fit.
# Assay: qHTS for Inhibitors of TGF-b; also: nearly all actives have a fitted effect of over 65% in size
# Conditions: HepG2 CAGA-GFP TGF-b/SMAD3 reporter, GFP fluorescence, 18 h, TGF-beta stimulated, 500 pg/mL final; series mostly up to 46.1 µM; activity, negative = inhibition: at the top concentration
# Outline: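 Per well, imaged GFP fluorescence of HEPG2 CAGA-GFP cells gives the signal; cells get compound, then TGF-beta (500 pg/mL final), 18 h at 37 degrees C; %Activity versus -TGF-beta and +DMSO controls.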
# % is scaled to controls: 0 for no effect and ±100 for the full control effect; potency is read from the fitted curve at half-maximal effect; tags tell the direction and shape of the fitted curve.
Structure (SMILES),Potency,"activity, negative = inhibition"
COc1cccc(-c2c(C(=O)N/N=C(\C)c3ccco3)nnn2-c2nonc2N)c1,"inconclusive: 0.447 µM [inhibitor, full curve]",
O=C(NC1CCCCC1)c1ccc(CSc2nc3ccncc3n2Cc2ccccc2)cc1,"inconclusive: 7.08 µM [inhibitor, partial curve]",
Cc1ccc2onc(CC(=O)N3CCN(c4ccc(Cl)cc4)CC3)c2c1,"inconclusive: 14.1 µM [inhibitor, single point]",
COc1ccccc1CNC(=O)C1(C)CCN1Cc1ccc(OC(F)(F)F)cc1 (stereo unspecified),"inconclusive: 15.8 µM [inhibitor, single point]",
COCCN(C(=O)CSc1n[nH]c(-c2ccccc2)n1)c1c(N)n(Cc2ccccc2)c(=O)[nH]c1=O,"inconclusive: 35.5 µM [inhibitor, single point]",
O=C(CN1CC(=O)Oc2ccccc21)OCC(=O)c1ccc(F)cc1,"inconclusive: 35.5 µM [inhibitor, single point]",
COc1ccc(/C=C/C(=O)NC(=S)Nc2ccccc2)cc1OC,,inactive: -5.93%
C=CCc1ccc(OCC(O)COc2ccc(CC=C)cc2OC)c(OC)c1,"inconclusive: 35.5 µM [inhibitor, single point]",
Cc1c(NS(=O)(=O)CC23CCC(CC2=O)C3(C)C)c(=O)n(-c2ccccc2)n1C (stereo unspecified),"inconclusive: 1.58 µM [inhibitor, partial curve]",
CCn1c(SCC(=O)NC2CCCCC2C)nnc1-c1ccc(OC)cc1 (stereo unspecified),,inactive: -11%
C=C(C)CNC(=S)NNC(=O)CCn1c2ccccc2c2ccccc21,"inconclusive: 35.5 µM [inhibitor, single point]",
Cc1ccc(NC(=S)NCCC(c2ccccc2)c2ccccc2)c(C)c1,"inconclusive: 22.4 µM [inhibitor, single point]",
Cc1ccc(S(=O)(=O)N(C)CC(=O)N2CCN(c3ccccn3)CC2)cc1,"inconclusive: 35.5 µM [inhibitor, single point]",
Clc1cccc(-c2nc3ccc(Cl)cn3c2Cc2ccccc2)c1,"inconclusive: 12.6 µM [inhibitor, single point]",
CCOc1ccc(/C=C/c2nc(C#N)c(NCCCN(C)C)o2)cc1,"inconclusive: 22.4 µM [inhibitor, partial curve, poor fit]",
O=C(/C=C/c1ccc(Cl)cc1)N1CCN(c2ccccc2[N+](=O)[O-])CC1,"inconclusive: 4.47 µM [inhibitor, partial curve, poor fit]",
O=C(CNC(=O)c1ccccc1)NCC1COc2ccccc2O1 (stereo unspecified),"inconclusive: 0.112 µM [inhibitor, full curve, poor fit]",
COc1ccc2nc(C)cc(Nc3ccc(N4CCOCC4)cc3)c2c1,"inconclusive: 12.6 µM [inhibitor, single point]",
O=C(COc1ccccc1Cl)N(Cc1cccc(F)c1)C1CCS(=O)(=O)C1 (stereo unspecified),"inconclusive: 25.1 µM [inhibitor, single point]",
N#Cc1ccccc1OCC(=O)OCC(=O)N1CCN(C(=O)c2ccco2)CC1,,inactive: -3.21%
Cc1cc(/C=C/c2ccnc3ccccc23)ccc1N,"inconclusive: 35.5 µM [inhibitor, single point]",
Cn1c(=O)cc(SCC(=O)NCc2ccco2)c2ccccc21,,inactive: -1.67%

Structure (SMILES),Potency,"activity, negative = inhibition"
Cc1nc(Nc2ccccc2)sc1-c1ccccc1,"inconclusive: 35.5 µM [inhibitor, single point]",
COCCC1CCCCN1C(=O)c1cccc(OC2CCN(S(C)(=O)=O)CC2)c1 (stereo unspecified),,inactive: -28.5%
Cc1ccc(S(=O)(=O)N2CCOCC2)cc1C(=O)N1CCN(c2ncccn2)CC1,,inactive: 64.4%
CCOC(=O)C(C)n1nc(-c2ccccc2)c2ccccc2c1=O (stereo unspecified),"inconclusive: 35.5 µM [inhibitor, single point]",
CCOc1ccccc1NC(=O)CSc1ccc2nc(-c3ccccc3)cn2n1,,inactive: -11.9%
COC(=O)C1NN=C(C(=O)c2ccc(Br)cc2)C1c1cccc(Br)c1 (stereo unspecified),"inconclusive: 20 µM [inhibitor, partial curve]",
O=C(NCc1ccccc1)C1=C[C@H](c2csc3ccccc23)C[C@H](OCCCCO)O1,"inconclusive: 22.4 µM [inhibitor, single point]",
CCc1ccc(NC(=O)CCCc2nnc3n(CCCOC)c(=O)c4sccc4n23)cc1,"inconclusive: 11.2 µM [inhibitor, single point]",
COc1cc(NC(=O)CNc2ccc(Cl)c(S(=O)(=O)N3CCOCC3)c2)cc(OC)c1,,inactive: -29.4%
COc1ccccc1-c1nnc(C2CCN(S(=O)(=O)c3cccc([N+](=O)[O-])c3)CC2)o1,,inactive: -15.5%
Cc1ccc(NC(=O)C(C)Sc2nc3c(c(=O)[nH]2)CCCC3)cc1Cl (stereo unspecified),"inconclusive: 12.6 µM [inhibitor, partial curve, poor fit]",
CCC(C)N(C(=O)CCC(=O)Nc1cc(C)on1)C(C(=O)NC(C)(C)C)c1ccccc1Cl (stereo unspecified),"inconclusive: 35.5 µM [inhibitor, single point]",
COc1ccc(CCNc2nc(-c3ccc(O)cc3)cs2)cc1OC,"inconclusive: 35.5 µM [inhibitor, single point]",
CSc1cccc(NC(=O)CN2C(=O)CCc3cc(S(=O)(=O)N4CCCCC4)ccc32)c1,"inconclusive: 11.2 µM [inhibitor, partial curve]",
CC(=O)c1cccc(Nc2cc(C)nc3c(C)cc(C)cc23)c1,"inconclusive: 25.1 µM [inhibitor, single point]",
COc1ccc(N(CC(=O)NCCSc2ccccc2)S(=O)(=O)c2ccccc2)cc1OC,"inconclusive: 35.5 µM [inhibitor, single point]",
CCOc1ccc(CNC(=O)C2CCCN(c3nn4cc(-c5ccc(F)cc5)nc4s3)C2)cc1 (stereo unspecified),"inconclusive: 35.5 µM [inhibitor, single point]",
COc1cc2ccccc2cc1C(=O)N(CCN(C)C)c1nc2ccc(C)cc2s1,"inconclusive: 31.6 µM [inhibitor, single point]",
COc1cc2ccccc2cc1C(=O)N1CCN(c2nc3c(F)cc(F)cc3s2)CC1,active: 7.08 µM,
COc1ccc(CNC(=O)c2cc3c(=O)n4cccc(C)c4nc3n(CC3CCCO3)c2=N)cc1 (stereo unspecified),,inactive: 3.33%
O=C(O)c1ccc(CSCc2ccco2)cc1,"inconclusive: 0.631 µM [inhibitor, full curve, poor fit]",
O=C(Cn1c(-c2cscn2)nc2ccccc21)Nc1ccc(Cl)cc1,"inconclusive: 2.82 µM [inhibitor, full curve, poor fit]",

Structure (SMILES),Potency,"activity, negative = inhibition"
Cc1ccc(S(=O)(=O)/N=C(\CCl)N2CCOCC2)cc1,"inconclusive: 0.708 µM [inhibitor, full curve, poor fit]",
CC(=O)Nc1cccc(-c2nc3ccccc3[nH]2)c1,"inconclusive: 25.1 µM [inhibitor, single point]",
COc1ccc(C)cc1NC(=S)NNC(=O)c1ccccc1Cl,"inconclusive: 10 µM [inhibitor, partial curve]",
CC(C)=CC1C=C(C)C(C)C2C(=O)NNC(=O)C12 (stereo unspecified),,inactive: -2.05%
Cc1cccc(NC(=O)C2CCN(S(=O)(=O)c3ccc4c(c3)OCCO4)CC2)n1,,inactive: -11.7%
C=CCn1c(C(CCCC)CC(O)COCCC)n[nH]c1=S (stereo unspecified),,inactive: 3.14%
O=C(CSc1nn(-c2ccc(F)cc2)c(=S)s1)NC1CCS(=O)(=O)C1 (stereo unspecified),"inconclusive: 0.112 µM [inhibitor, full curve, poor fit]",
CCCCOc1cccc(-c2cc(C(=O)NNC(=S)NCC)c3ccccc3n2)c1,"inconclusive: 14.1 µM [inhibitor, partial curve, poor fit]",
CC(=O)C(Sc1ccc2nnc(-c3ccncc3)n2n1)C(C)=O,"inconclusive: 17.8 µM [inhibitor, single point]",
CCOC(=O)C1CCN(C(=O)CSc2n[nH]c(-c3ccc(OC)cc3)n2)CC1,,inactive: -25.3%
CC1=CC(=C(C#N)c2nc3ccccc3s2)C=C(C)N1c1ccc(F)cc1,"inconclusive: 35.5 µM [inhibitor, single point]",
COc1ccc(OC)c(N(CCN2C(=O)c3ccccc3C2=O)C(=O)CCl)c1,"inconclusive: 10 µM [inhibitor, partial curve]",
Cc1cccc(NC(=O)CN2CCC(C(=O)c3ccc4c(c3)OCCO4)CC2)c1,"inconclusive: 35.5 µM [inhibitor, single point]",
Clc1ccc(/C=C/c2nc3ccccc3[nH]2)c(Cl)c1,"inconclusive: 35.5 µM [inhibitor, single point]",
COC(=O)c1ccc(Nc2nc(C)nc3c2nnn3Cc2ccccc2)cc1,,inactive: 1.14%
CN(C)c1ccc(CNC(=O)C2CCN(S(=O)(=O)c3ccc4[nH]c(=O)ccc4c3)CC2)cc1,,inactive: 16.1%
Cc1ccc(-c2nn[nH]n2)cc1Cl,"inconclusive: 6.31 µM [inhibitor, single point]",
COc1ccc(-c2noc(CN(C(=O)c3c(-c4ccccc4Cl)noc3C)C(C)C)n2)cc1,"inconclusive: 11.2 µM [inhibitor, single point]",
O=C(CNc1ccccc1Cl)Nc1cc(S(=O)(=O)N2CCOCC2)ccc1Cl,"inconclusive: 11.2 µM [inhibitor, partial curve]",
N#Cc1ccc(NC(=O)COC(=O)c2cccc(S(=O)(=O)N3CCCC3)c2)cc1,,inactive: -1.37%
O=C(NCCc1c[nH]c2ccccc12)C1CCN(Cc2ccc(Br)cc2)CC1,"inconclusive: 25.1 µM [inhibitor, single point]",
CCOc1cc(C(=O)OC(C)C(=O)Nc2ccccc2OC)ccc1OCC(=O)N1CCOCC1 (stereo unspecified),"inconclusive: 35.5 µM [inhibitor, single point]",
